# Laboratory results as given in PubChem BioAssay AID1768 (National Center for Advancing Translational Sciences (NCATS), 2009).
# Hit rate of the full screen: of about 270,000 compounds, about 620 (0.23%) were called active. The inconclusive results got no clear call from the source; some entries with a clear call stand among them for comparison. The call rests on the fitted dose curve; in most records, active means well fitted inhibition curve with a large enough effect in the polarisation, with a control signal flat (not every such curve was filed as active); inconclusive means small, poorly fitted or top-dose-only effect, or effect the other way, or a change in a side signal; inactive means no such curve, though single readings can be large or run the other way; the % refers to the polarisation. A potency beside an inconclusive call is a rough fit, not a confirmed value. “Side channel” marks fits to a control or component signal instead of the main read-out.
# Biological target: Menin (Homo sapiens) (UniProt O00255)
# Test: qHTS Assay for Inhibitors Targeting the Menin-MLL Interaction in MLL Related Leukemias: Competition With Texas Red Labeled MLL-derived Mutant Peptide; on FP activity change, negative = inhibition: % of control where 0% means no effect
# Conditions: fluorescence polarization; FP activity change, negative = inhibition: at 61.6 µM (top of the series)
# Potency means the concentration at half of the fitted maximal effect; tags describe the fitted curve by direction and shape or compound fluorescence and quenching.
# Sequence of UniProt O00255 (O00255 whole entry, looked up): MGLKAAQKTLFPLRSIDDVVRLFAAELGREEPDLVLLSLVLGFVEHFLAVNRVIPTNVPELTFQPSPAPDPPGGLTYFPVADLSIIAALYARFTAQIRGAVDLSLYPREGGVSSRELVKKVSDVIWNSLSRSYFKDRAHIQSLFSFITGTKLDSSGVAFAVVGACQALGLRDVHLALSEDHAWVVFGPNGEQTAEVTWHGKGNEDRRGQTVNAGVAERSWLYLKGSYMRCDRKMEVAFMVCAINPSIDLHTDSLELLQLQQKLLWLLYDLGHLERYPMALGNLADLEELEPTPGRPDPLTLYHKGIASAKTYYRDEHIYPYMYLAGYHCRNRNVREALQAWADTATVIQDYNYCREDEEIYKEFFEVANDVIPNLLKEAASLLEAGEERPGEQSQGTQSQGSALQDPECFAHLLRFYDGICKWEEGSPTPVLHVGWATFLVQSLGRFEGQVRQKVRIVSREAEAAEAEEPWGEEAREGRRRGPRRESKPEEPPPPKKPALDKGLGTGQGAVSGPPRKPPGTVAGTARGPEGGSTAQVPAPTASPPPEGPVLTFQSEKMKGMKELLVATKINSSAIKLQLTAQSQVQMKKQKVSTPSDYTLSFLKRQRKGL
SMILES,Potency,"FP activity change, negative = inhibition"
CCOC(=O)c1oc2ccc(S(=O)(=O)n3nc(-c4ccc(OC)cc4)cc3N)cc2c1C,"inconclusive: 10 µM [inhibitor, partial curve]",
CCSc1ccccc1C(=O)N1CCN(c2ccc([N+](=O)[O-])cc2)CC1,"inconclusive: 8.91 µM [inhibitor, single point]",
COc1ccc(-c2nnc(SCC3CCCO3)n2C)cc1 (stereo not drawn),"inconclusive: 5.62 µM [fluorescent, side channel, single point]",
c1ccc(-c2onc(-c3ccco3)c2-c2ccc3c(c2)OCO3)cc1,"inconclusive: 39.8 µM [inhibitor, single point]",
N#CC(C#N)=C1C=C2C=C(N3CCCCCC3)CCC2CC1 (stereo not drawn),"inconclusive: 31.6 µM [fluorescent, side channel, partial curve]",
COc1ccc(Nc2nc(-c3cccc([N+](=O)[O-])c3)nc3ccccc23)cc1,"inconclusive: 3.98 µM [quencher, side channel, full curve]",
CCOC(=O)c1ccc(NC(=O)COc2ccc(-n3cnnn3)cc2)cc1,"inconclusive: 31.6 µM [quencher, side channel, single point]",
CC(=O)OCCn1c(C)[n+](CCOC(C)=O)c2cc(Cl)c(Cl)cc21,,inactive: 23.4%
CN(C)c1ccc(C(=S)NC2CCCCC2)cc1,"inconclusive: 15.8 µM [quencher, side channel, single point]",
CCc1nnc(NC(=O)CCC(=O)N2CCN(Cc3ccc(OC)c(F)c3)CC2)s1,"inconclusive: 39.8 µM [inhibitor, single point]",
CCOc1ccc(/C=C2\SC(=S)N(N3C(=O)C4CC4C3=O)C2=O)cc1 (stereo not drawn),"inconclusive: 31.6 µM [quencher, side channel, single point]",
COC(=O)c1sccc1NC(=O)c1c(Cl)cccc1Cl,"inconclusive: 3.98 µM [fluorescent, side channel, single point]",
COc1ccccc1Oc1ccc2c(c1)C(=O)N(c1ccc(C)cc1)C2=O,"inconclusive: 4.47 µM [inhibitor, single point]",
O=C(/C=C\Nc1ccc2c(c1)OCO2)c1ccc2c(c1)OCO2,"inconclusive: 14.1 µM [quencher, side channel, partial curve]",
O=C(Nc1nc(-c2ccccn2)cs1)c1ncc(Cl)c(Cl)c1Cl,,inactive: 26.9%
COC(=O)C1=C(C)NC2=C(C(=O)CCC2)C1c1cccs1 (stereo not drawn),,inactive: 4.03%
O=C(O)c1ccc(NC(=O)c2cccc(C(=O)Nc3ccc(C(=O)O)cc3)c2)cc1,"inconclusive: 31.6 µM [inhibitor, single point]",
CCOc1ccc(C2C(C(=O)Nc3ccccc3)=C(C)N=c3s/c(=C/c4cccc(OCC(=O)O)c4)c(=O)n32)cc1 (stereo not drawn),"inconclusive: 1 µM [quencher, side channel, full curve]",
CC1=Nc2ccccc2/C1=C\c1nc(-c2ccc(F)cc2)oc1O,"inconclusive: 8.91 µM [quencher, side channel, partial curve]",

SMILES,Potency,"FP activity change, negative = inhibition"
CC1(OCON)CCCc2ccccc21 (stereo not drawn),"inconclusive: 20 µM [inhibitor, single point]",
CC(C)(C)c1ccc(NC(=O)Cn2cnc3cc([N+](=O)[O-])ccc3c2=O)cc1,"inconclusive: 25.1 µM [quencher, side channel, partial curve]",
CC(C)CCOc1ccc(C2(C)NC(=O)N(CN3CCOCC3)C2=O)cc1 (stereo not drawn),"inconclusive: 1.41 µM [inhibitor, full curve, poor fit]",
CCOc1ccc(/C=N\NC(=O)c2c(C)nc3cc(C)ccn23)cc1,"inconclusive: 28.2 µM [inhibitor, single point]",
Cc1sc2ncn(CC(=O)NCC(=O)N3CCN(c4ccccc4F)CC3)c(=O)c2c1C,"inconclusive: 28.2 µM [fluorescent, side channel, single point]",
Cc1ccc(OCC(=O)NNC(=O)CCc2ccccc2)cc1,"inconclusive: 39.8 µM [fluorescent, single point]",
COc1ccc(C(C(=O)NC2CCCCC2)N(C(=O)c2sc(C)nc2C)c2ccccc2C)cc1 (stereo not drawn),"inconclusive: 0.891 µM [inhibitor, full curve]",
Cc1cc(NC2CCCCC2)nc(-c2ccccc2O)n1,"inconclusive: 22.4 µM [quencher, side channel, single point]",
COc1ccc2nc(NC(=O)CSc3ccccc3)sc2c1,"inconclusive: 11.2 µM [quencher, side channel, partial curve]",
O=C1CC(C(=O)N2CCCc3ccccc32)CN1c1ccc(Cl)cc1 (stereo not drawn),"inconclusive: 25.1 µM [inhibitor, partial curve]",
Cc1c(C)c2ccc(OCC(=O)c3ccccc3)cc2oc1=O,"inconclusive: 22.4 µM [fluorescent, side channel, single point]",
COc1ccc(N(Cc2cc3cccc(C)c3[nH]c2=O)S(C)(=O)=O)cc1,,inactive: 2.25%
Cc1ccc(-c2cc(C(F)F)n3ncc(C(=O)N4CCc5ccccc54)c3n2)cc1,"inconclusive: 1.58 µM [fluorescent, side channel, full curve, poor fit]",
O=C(N/N=C/c1ccccc1)c1ccc(OCc2ccccc2)cc1,"inconclusive: 10 µM [inhibitor, partial curve]",
Cc1ccc(NC(=S)NCc2ccc3c(c2)cc(C)n3C)c(C)c1,,inactive: 0.361%
CCC(=O)Nc1ccc(C(=O)CSc2nnc(-c3ccccc3F)n2C2CC2)cc1,"inconclusive: 39.8 µM [quencher, side channel, single point]",
Cc1ccc(SCc2c(C(=O)N/N=C/c3ccc4c(c3)OCO4)nnn2-c2nonc2N)cc1,"inconclusive: 3.16 µM [quencher, side channel, single point]",
CCNc1ncc2nc(-c3cccs3)c(=O)n(-c3ccccc3)c2n1,"inconclusive: 20 µM [fluorescent, side channel, single point]",
O=[N+]([O-])c1ccc(C2CC(c3ccccc3)=Nc3ccccc3S2)cc1 (stereo not drawn),"inconclusive: 10 µM [quencher, side channel, partial curve]",
